T1: CD19 (human, UniProt P15391 20-556)
T1 sequence (looked up): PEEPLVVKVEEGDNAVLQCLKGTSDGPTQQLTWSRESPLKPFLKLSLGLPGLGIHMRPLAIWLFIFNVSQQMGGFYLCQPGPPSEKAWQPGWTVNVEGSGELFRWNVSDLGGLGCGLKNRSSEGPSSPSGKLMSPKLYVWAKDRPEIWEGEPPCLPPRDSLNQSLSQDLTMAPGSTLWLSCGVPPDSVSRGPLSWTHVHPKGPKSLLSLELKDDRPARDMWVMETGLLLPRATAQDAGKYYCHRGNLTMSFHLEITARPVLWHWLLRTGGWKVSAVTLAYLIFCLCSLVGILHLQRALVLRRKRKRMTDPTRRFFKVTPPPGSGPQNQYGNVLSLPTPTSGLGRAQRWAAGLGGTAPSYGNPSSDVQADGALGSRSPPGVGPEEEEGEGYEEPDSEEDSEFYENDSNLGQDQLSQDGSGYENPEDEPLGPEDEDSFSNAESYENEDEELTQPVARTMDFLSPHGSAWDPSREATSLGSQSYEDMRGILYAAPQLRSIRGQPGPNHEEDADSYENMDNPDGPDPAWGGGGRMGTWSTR

B1: CD19-28z-m11 (other)
chain: DIQMTQTTSSLSASLGDRVTISCRASQDISKYLNWYQQKPDGTVKLLIYHTSRLHSGVPSRFSGRGRGTRYSLTISNLEQEDIATYFCQQGNTLPYTFGGGTKLEITGGGGSGGGGSGGGGSEVKLQESGPGLVAPSQSLSVTCTVSGVSLPDYGVSWIRQPPRKGLEWLGVIWGSETTYYNSALKSRLTIIKDNSKSQVFLKMNSLQTDDTAIYYCAKHYYYGGSYAMDYWGQGTSVTVSSIEVMYPPPYLDNEKSNGTIIHVKGKHLCPSPLFPGPSKPFWVLVVVGGVLACYSLLVTVAFIIFWVRSKRSRLLHSDYMNMTPRRPGPTRKHYQPYAPPRDFAAYRSL[about 120 residues left out here]
B2: CD19-28z-m12 (other)
chain: DIQMTQTTSSLSASLGDRVTISCRASQDISKYLNWYQQKPDGTVKLLIYHTSRLHSGVPSRFSGRGRGTDYRLTISNLEQEDIATYFCQQGNTLPYTFGGGTKLEITGGGGSGGGGSGGGGSEVKLQESGPGLVAPSQSLSVTCTVSGVSLPDYGVSWIRQPPRKGLEWLGVIWGSETTYYNSALKSRLTIIKDNSKSQVFLKMNSLQTDDTAIYYCAKHYYYGGSYAMDYWGQGTSVTVSSIEVMYPPPYLDNEKSNGTIIHVKGKHLCPSPLFPGPSKPFWVLVVVGGVLACYSLLVTVAFIIFWVRSKRSRLLHSDYMNMTPRRPGPTRKHYQPYAPPRDFAAYRSL[about 120 residues left out here]
B3: CD19-28z-Km13 (other)
chain: DIQMTQTTSSLSASLGDRVTISCRASQDISKYLNWYQQKPDGTVKLLIYHTSRLHSGVPSRFKGKGSGTKYKLTISNLEQEDIATYFCQQGNTLPYTFGGGTKLEITGGGGSGGGGSGGGGSEVKLQESGPGLVAPSQSLSVTCTVSGVSLPDYGVSWIRQPPRKGLEWLGVIWGSETTYYNSALKSRLTIIKDNSKSQVFLKMNSLQTDDTAIYYCAKHYYYGGSYAMDYWGQGTSVTVSSIEVMYPPPYLDNEKSNGTIIHVKGKHLCPSPLFPGPSKPFWVLVVVGGVLACYSLLVTVAFIIFWVRSKRSRLLHSDYMNMTPRRPGPTRKHYQPYAPPRDFAAYRSL[about 120 residues left out here]
B4: CD19-28z-Km14 (other)
chain: DIQMTQTTSSLSASLGDRVTISCRASQDISKYLNWYQQKPDGTVKLLIYHTSRLHSGVPSRFSGKGKGTKYKLTISNLEQEDIATYFCQQGNTLPYTFGGGTKLEITGGGGSGGGGSGGGGSEVKLQESGPGLVAPSQSLSVTCTVSGVSLPDYGVSWIRQPPRKGLEWLGVIWGSETTYYNSALKSRLTIIKDNSKSQVFLKMNSLQTDDTAIYYCAKHYYYGGSYAMDYWGQGTSVTVSSIEVMYPPPYLDNEKSNGTIIHVKGKHLCPSPLFPGPSKPFWVLVVVGGVLACYSLLVTVAFIIFWVRSKRSRLLHSDYMNMTPRRPGPTRKHYQPYAPPRDFAAYRSL[about 120 residues left out here]
B5: CD19-28z-Km15 (other)
chain: DIQMTQTTSSLSASLGDRVTISCRASQDISKYLNWYQQKPDGTVKLLIYHTSRLHSGVPSRFKGKGKGTKYKLTISNLEQEDIATYFCQQGNTLPYTFGGGTKLEITGGGGSGGGGSGGGGSEVKLQESGPGLVAPSQSLSVTCTVSGVSLPDYGVSWIRQPPRKGLEWLGVIWGSETTYYNSALKSRLTIIKDNSKSQVFLKMNSLQTDDTAIYYCAKHYYYGGSYAMDYWGQGTSVTVSSIEVMYPPPYLDNEKSNGTIIHVKGKHLCPSPLFPGPSKPFWVLVVVGGVLACYSLLVTVAFIIFWVRSKRSRLLHSDYMNMTPRRPGPTRKHYQPYAPPRDFAAYRSL[about 120 residues left out here]
B6: CD19-28z-m16 (other)
chain: DIQMTQTTSSLSASLGDRVTISCRASQDISKYLNWYQQKPDGTVKLLIYHTSRLHSGVPSRFRGRGRGTRYRLTISNLEQEDIATYFCQQGNTLPYTFGGGTKLEITGGGGSGGGGSGGGGSEVKLQESGPGLVAPSQSLSVTCTVSGVSLPDYGVSWIRQPPRKGLEWLGVIWGSETTYYNSALKSRLTIIKDNSKSQVFLKMNSLQTDDTAIYYCAKHYYYGGSYAMDYWGQGTSVTVSSIEVMYPPPYLDNEKSNGTIIHVKGKHLCPSPLFPGPSKPFWVLVVVGGVLACYSLLVTVAFIIFWVRSKRSRLLHSDYMNMTPRRPGPTRKHYQPYAPPRDFAAYRSL[about 120 residues left out here]
B7: CD19-28z-m5 (other)
chain: DIQMTQTTSSLSASLGDRVTISCRASQDISKYLNWYQQKPDGTVKLLIYHTSRLHSGVPRRFRGRGSGTDYSLTISNLEQEDIATYFCQQGNTLPYTFGGGTKLEITGGGGSGGGGSGGGGSEVKLQESGPGLVAPSQSLSVTCTVSGVSLPDYGVSWIRQPPRKGLEWLGVIWGSETTYYNSALKSRLTIIKDNSKSQVFLKMNSLQTDDTAIYYCAKHYYYGGSYAMDYWGQGTSVTVSSIEVMYPPPYLDNEKSNGTIIHVKGKHLCPSPLFPGPSKPFWVLVVVGGVLACYSLLVTVAFIIFWVRSKRSRLLHSDYMNMTPRRPGPTRKHYQPYAPPRDFAAYRSL[about 120 residues left out here]
B8: CD19-28z-Km6 (other)
chain: DIQMTQTTSSLSASLGDRVTISCRASQDISKYLNWYQQKPDGTVKLLIYHTSRLHSGVPSRFKGKGSGTKYSLTISNLEQEDIATYFCQQGNTLPYTFGGGTKLEITGGGGSGGGGSGGGGSEVKLQESGPGLVAPSQSLSVTCTVSGVSLPDYGVSWIRQPPRKGLEWLGVIWGSETTYYNSALKSRLTIIKDNSKSQVFLKMNSLQTDDTAIYYCAKHYYYGGSYAMDYWGQGTSVTVSSIEVMYPPPYLDNEKSNGTIIHVKGKHLCPSPLFPGPSKPFWVLVVVGGVLACYSLLVTVAFIIFWVRSKRSRLLHSDYMNMTPRRPGPTRKHYQPYAPPRDFAAYRSL[about 120 residues left out here]
B9: CD19-28z-m17 (other)
chain: DIQMTQTTSSLSASLGDRVTISCRASQDISKYLNWYQQKPDGTVKLLIYHTSRLHSGVPSRFSGSGSGTRYRLRISNLEQEDIATYFCQQGNTLPYTFGGGTKLEITGGGGSGGGGSGGGGSEVKLQESGPGLVAPSQSLSVTCTVSGVSLPDYGVSWIRQPPRKGLEWLGVIWGSETTYYNSALKSRLTIIKDNSKSQVFLKMNSLQTDDTAIYYCAKHYYYGGSYAMDYWGQGTSVTVSSIEVMYPPPYLDNEKSNGTIIHVKGKHLCPSPLFPGPSKPFWVLVVVGGVLACYSLLVTVAFIIFWVRSKRSRLLHSDYMNMTPRRPGPTRKHYQPYAPPRDFAAYRSL[about 120 residues left out here]
B10: CD19-28z-m18 (other)
chain: DIQMTQTTSSLSASLGDRVTISCRASQDISKYLNWYQQKPDGTVKLLIYHTSRLHSGVPRRFRGSGSGTDYSLTIRNLEQEDIATYFCQQGNTLPYTFGGGTKLEITGGGGSGGGGSGGGGSEVKLQESGPGLVAPSQSLSVTCTVSGVSLPDYGVSWIRQPPRKGLEWLGVIWGSETTYYNSALKSRLTIIKDNSKSQVFLKMNSLQTDDTAIYYCAKHYYYGGSYAMDYWGQGTSVTVSSIEVMYPPPYLDNEKSNGTIIHVKGKHLCPSPLFPGPSKPFWVLVVVGGVLACYSLLVTVAFIIFWVRSKRSRLLHSDYMNMTPRRPGPTRKHYQPYAPPRDFAAYRSL[about 120 residues left out here]
B11: CD19-28z-m19 (other)
chain: DIQMTQTTSSLSASLGDRVTISCRASQDISKYLNWYQQKPDGTVKLLIYHTSRLHSGVPRRFSGSGSGTDYSLRIRNLEQEDIATYFCQQGNTLPYTFGGGTKLEITGGGGSGGGGSGGGGSEVKLQESGPGLVAPSQSLSVTCTVSGVSLPDYGVSWIRQPPRKGLEWLGVIWGSETTYYNSALKSRLTIIKDNSKSQVFLKMNSLQTDDTAIYYCAKHYYYGGSYAMDYWGQGTSVTVSSIEVMYPPPYLDNEKSNGTIIHVKGKHLCPSPLFPGPSKPFWVLVVVGGVLACYSLLVTVAFIIFWVRSKRSRLLHSDYMNMTPRRPGPTRKHYQPYAPPRDFAAYRSL[about 120 residues left out here]
B12: CD19-28z-m20 (other)
chain: DIQMTQTTSSLSASLGDRVTISCRASQDISKYLNWYQQKPDGTVKLLIYHTSRLHSGVPSRFSGSGSGTDYSLTISRLRQRDIATYFCQQGNTLPYTFGGGTKLEITGGGGSGGGGSGGGGSEVKLQESGPGLVAPSQSLSVTCTVSGVSLPDYGVSWIRQPPRKGLEWLGVIWGSETTYYNSALKSRLTIIKDNSKSQVFLKMNSLQTDDTAIYYCAKHYYYGGSYAMDYWGQGTSVTVSSIEVMYPPPYLDNEKSNGTIIHVKGKHLCPSPLFPGPSKPFWVLVVVGGVLACYSLLVTVAFIIFWVRSKRSRLLHSDYMNMTPRRPGPTRKHYQPYAPPRDFAAYRSL[about 120 residues left out here]

Molecular target: T1, CD19
Experiment: cell-based or functional assay

Binder | IFNγ production, co-culture with Nalm-6 | cytotoxic activity, effector:target 1:1, Nalm-6 target cells | cytotoxic activity, effector:target 2:1, Nalm-6 target cells
B1 | 0.17 ratio to WT CAR-T (1.00) | 1.06 ratio to WT CAR-T (1.00) | 1.4 ratio to WT CAR-T (1.00)
B2 | 0.16 ratio to WT CAR-T (1.00) | 1.39 ratio to WT CAR-T (1.00) | 1.47 ratio to WT CAR-T (1.00)
B3 | 0.13 ratio to WT CAR-T (1.00) | 1.37 ratio to WT CAR-T (1.00) | 1.68 ratio to WT CAR-T (1.00)
B4 | 0.13 ratio to WT CAR-T (1.00) | 1.34 ratio to WT CAR-T (1.00) | 1.72 ratio to WT CAR-T (1.00)
B5 | 0.14 ratio to WT CAR-T (1.00) | 1.23 ratio to WT CAR-T (1.00) | 1.29 ratio to WT CAR-T (1.00)
B6 | 0.15 ratio to WT CAR-T (1.00) | 1.32 ratio to WT CAR-T (1.00) | 1.93 ratio to WT CAR-T (1.00)
B7 | 0.34 ratio to WT CAR-T (1.00) | 0.95 ratio to WT CAR-T (1.00) | 1.09 ratio to WT CAR-T (1.00)
B8 | 0.2 ratio to WT CAR-T (1.00) | 1.13 ratio to WT CAR-T (1.00) | 1.5 ratio to WT CAR-T (1.00)

Molecular target: T1, CD19
Experiment: cell-based or functional assay
Remark: another data set of the same source

Binder | IFNγ production, co-culture with Nalm-6 | cytotoxic activity, effector:target 1:1, Nalm-6 target cells | cytotoxic activity, effector:target 3:1, Nalm-6 target cells
B9 | 0.34 ratio to WT CAR-T (1.00) | 2.43 ratio to WT CAR-T (1.00) | 1.43 ratio to WT CAR-T (1.00)
B10 | 0.28 ratio to WT CAR-T (1.00) | 1.42 ratio to WT CAR-T (1.00) | 1.27 ratio to WT CAR-T (1.00)
B11 | 0.68 ratio to WT CAR-T (1.00) | 1.76 ratio to WT CAR-T (1.00) | 1.38 ratio to WT CAR-T (1.00)
B12 | 0.39 ratio to WT CAR-T (1.00) | 1.9 ratio to WT CAR-T (1.00) | 1.57 ratio to WT CAR-T (1.00)

— patent US20260217856A1 (MIE UNIVERSITY, published 2026)
